# The other results are listed elsewhere or left out. At the low end of the ranking the order means little. The protein was read in a cell extract, so binding may be indirect.
# Biological target: T1, HNF4alpha8 (COS-7 nuclear extract) (UniProt P41235-5)
# T1 sequence: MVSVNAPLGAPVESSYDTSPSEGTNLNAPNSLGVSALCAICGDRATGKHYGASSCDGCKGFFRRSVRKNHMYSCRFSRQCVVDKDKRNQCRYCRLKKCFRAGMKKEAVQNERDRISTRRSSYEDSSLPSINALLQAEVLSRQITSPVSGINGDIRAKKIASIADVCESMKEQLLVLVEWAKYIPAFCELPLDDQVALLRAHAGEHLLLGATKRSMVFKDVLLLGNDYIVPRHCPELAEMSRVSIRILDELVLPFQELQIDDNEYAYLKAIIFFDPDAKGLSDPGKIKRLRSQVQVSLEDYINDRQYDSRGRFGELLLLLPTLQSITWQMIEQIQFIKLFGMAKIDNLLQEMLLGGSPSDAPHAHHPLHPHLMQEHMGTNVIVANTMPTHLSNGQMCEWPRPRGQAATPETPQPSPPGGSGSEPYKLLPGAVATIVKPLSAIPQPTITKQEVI
# Assay: protein-binding microarray
# Details: COS-7 nuclear extract on double-stranded Agilent 4x180k PBM; binding buffer, salt, pH and temperature not given; high values mean tight binding; double strand, one strand shown; sequences stand for … in …GCCTAGGGAGATTAGAGTATCGGTCGA
row,Sequence,binding signal (log2 normalized intensity)
1,TCAAAGGGCAGACAGGAACATCTGATTTCC,-1.37
2,TGGTCCGCCTTCATTCCTAGCCCCACCAAA,4.25
3,CCCTCCCTAAATCCAGAGGTATTTGGCCCA,1.83
4,TGTTATCTCTGGAGGTCACTGCTGGTGGGT,2.04
5,GGTCAGCAATGTGGACTTTGTCCTGTGGGC,8.67
6,AAGAGAGGAGGCTGAAGACTTTGCACCAAG,1.35
7,TCACTGCTCCAGCCACTCATTCTTGGAATG,-1.3
8,CGGGAGGCAAGATAAGGGTAATCACCCCCA,2.63
9,AATACGCCTCGCCCGAGCTGTGCGGTAGGC,-1.43
10,TGGAATGTGCTCCCGACTGCTCCACCAGCG,-1.31
11,AAAGTCTGGATCCGTTAACAGCGGCATTCC,-1.32
12,GTGCTCCCCCACCCTGTGTCAGCATCTAAA,3.42
13,TTGCATAATCTGGCTCCAAAGTCTATGTGT,2.75
14,CTGAGTATTATCTTTTTAATCAATAATCTT,0.839
15,CACTGCCCATCCCCACTGAAAGTGTGTTAA,2.02
16,TATTGGAAGAATGGAATTGCCATTGACTGA,0.435
17,GTGTATCAATGGCCCCAGTGCACGTGCATG,0.168
18,CTAGATAAGGGAGATGAAAGGGGCCTCAGA,-1.33
19,GGAGCATTAGTTGACCATTGTGTTAAAGGA,1.37
20,ATCGAAAATCCCCCACCATTGTTATCTGAT,2.58
21,TGGAGGCCCAGTAAGTCCCACCCACTAGGC,2.19
22,TCACAAGAAAGGCAGAAAACTCAGATTCCT,-1.32
23,CCCGGGAATTCTGGGTAGTGTAGTTCCGCT,-1.33
24,CATGGGCAAATAAAGCTAACCAGCTCTATC,-1.26
25,TTTGATCTGATGTACCCAGCACTGTCAGCA,-1.37

row,Sequence,binding signal (log2 normalized intensity)
1,GGATTAAGGAGAAGGCTCCCAAGGTATCCT,-1.11
2,TGCCGCAACATTGTCCAGCAGACACGGGCA,-1.15
3,GGTCCACCGTGCGCAAACACACCCACCAAC,1.37
4,ACAGATGGGCTTGCCTAAGACATGCTCGCA,-1.16
5,CAGTGTCACAGACTTAGCACAGGAAAGGGC,-0.078
6,ACCTTGCTGATTACAGGTTGCAGTAAAGAA,-1.04
7,TATCTCCCAGCTGGAGTCTTCTCTATCCTT,-1.16
8,AGGGTCTGTTTTCAAACACAGGATTGAACC,2.94
9,AGGACAGGGCCCTTCACTATTTTCAAAGGT,-1.41
10,CTTCCTGACTTGGCCTGAACCAGTTTCTCA,-1.29
11,ACTCATGAGCCATCCTGAACAAATGTACTG,-1.16
12,GCTCTTTGTACCGTTTGAACAGCCAAGGAA,1.43
13,AAAACACAGCTCACCACCTAGTAAAGGGTG,-1.16
14,TTGAAGTGACTAAATGAGAAGAAATGATGG,-0.808
15,AAGACTTCCTGGCCTCTCTGCAAATTTGCC,-0.678
16,AATGCACTTGTTCCGGATAGCCAAATAGCC,-1.37
17,ATGCTCAGCCCACCTTTTGGCTGTAGAAAG,-0.224
18,AGGCATGAGAGGTGCTGCATGGGCTGAGCC,-1.38
19,TACCGACAACGCCAAGGACCGCCAAGGAAG,-1.31
20,AACCCGCCCCCTCCCCCTGCCGGCGGCGCA,6.05
21,ACAAAGGTGAGCTTTTATCTTAAGTGAGGT,0.262
22,ACCGCACTGGAAGCAAGCCCTATTAGGCAT,-1.46
23,TTTTAAAAGTATACTATATTTGTCCCACAT,0.612
24,CTTTGCCCCCCAAGTTGAAGCCATCCTCCC,5.1
25,CTCTGACCATGCCTATAAATTGCCTGGCTT,-1.22

row,Sequence,binding signal (log2 normalized intensity)
1,TAAGAGCTATCAATGACCCATGTTTGCCCT,3.57
2,CTGAGGCAAGTCTCTTTTAGGCTGTCAGCC,-1.29
3,GGAGGAAAAAGAATGCCTCTTTCAAAACCT,-1.18
4,GGGGAGAGGGGGTTAAAGGTTATTTGCTCA,5.15
5,CACCCTGCTCCAGCCAGAGGCCTTATCTGG,-1.3
6,GGCATTAATTCTTCTTTGAAAGTTTGGTGG,1.65
7,AATGGAAAGAATATGAACTTTGGAAATGCA,2.22
8,GGGGAGGCAGGAGTGGGAGGCTGGGGCCTC,-1.37
9,TACACTACAGGCAAGAGAATCAGAGAGATA,-1.35
10,ACTCAGTCCTTTCAGGACACCTTCAGGGCT,-1.42
11,ACCATGCTCTAGTCTTCCTGTCTCCATTGC,0.264
12,AGCACAATCAAAGCAATGGCTACCAAGGAG,-1.3
13,ACTGTGATGGAACAGTGTAACACATGGCAT,0.238
14,CAGGGTCAGTGCAATCACGCCTCAAATGAG,-1.37
15,TAGCCACAATAATGTGATAAGAATTTTGTG,0.208
16,CAGTGCAAGGGACCTAGGTGAGCAGGCAGA,-1.35
17,GTCCTGCCACATCCCCCACACCGAGATAGT,3.96
18,GTGAGGCAATGCCTCGCCCTGCTTCGGCTC,-1.48
19,TTGCCCAGTATTGATGTGAGGGTAGGAGCC,0.48
20,AGACAAATGCTTTTGAACACCTGTCCCTAG,-1.01
21,TGAGTAATTACTATAAATGCTCTGGCCTTT,1.66
22,CCTTATCTCGTTCTGATAGCAAGGAGAATT,-0.791
23,CTTACTTGGCATCATCAAACAAGATTTATC,-0.378

# Source: article PMC10726135
